Experimental data from the supplement of paper PMC3334620.
Over roughly 33,000 sequences, “E-score (-0.5 to 0.5)” has its median near -0.017; the highest 2% begin near 0.3. Some of the results follow.

What follows are sequences tested against T1, Sut1 (UniProt P53032) (assay: PBM E-score (8-mer binding enrichment) (E-score (-0.5 to 0.5)); higher = stronger / more preferred TF binding; most listed sequences are background and not binding sites). Settings: protein concentration: 200 nM; construct: GST-full length.
T1 sequence: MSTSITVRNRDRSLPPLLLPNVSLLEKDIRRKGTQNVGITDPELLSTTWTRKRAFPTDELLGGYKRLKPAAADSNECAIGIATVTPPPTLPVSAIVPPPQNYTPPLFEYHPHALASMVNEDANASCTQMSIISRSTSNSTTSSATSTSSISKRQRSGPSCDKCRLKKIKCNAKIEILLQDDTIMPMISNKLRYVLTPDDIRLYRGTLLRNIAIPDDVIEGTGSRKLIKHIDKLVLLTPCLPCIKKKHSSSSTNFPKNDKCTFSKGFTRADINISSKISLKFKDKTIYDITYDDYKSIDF
In short: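 Bound GST-tagged yeast transcription factors, applied at about 100-200 nM to double-stranded universal all-10-mer Agilent arrays, were detected with fluorescent anti-GST. Scans were normalised with masliner. A modified Wilcoxon-Mann-Whitney statistic, the E-score, was assigned to each ungapped eight-base word pooled with its reverse complement by the Universal PBM Analysis Suite.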

Point of comparison: AACGTAGT, “PBM E-score” value -0.152. Against it:
- ACCCTTTA — higher, 0.198
- CAATATCG — higher, 0.0807
- ACGGCAAA — higher, -0.0357
- AGCCCCCC — lower, -0.359
- TGCCAACA — higher, -0.0698
- AGTTAGTG — higher, 0.202
- AAATAGAT — higher, 0.21
- TATCGGGA — higher, 0.0279
- ACTTTTGG — higher, 0.0796
- AAACCGTG — higher, -0.0909
- GCCGCATA — higher, -0.111
- CCGTTACA — higher, 0.16
- CCTGCAGC — higher, -0.133
- TATCCATA — higher, 0.165
- AGGCCCAA — higher, -0.0529
- CGCCACAG — lower, -0.213
- TTATAGAA — higher, 0.16
- AGCAGTCA — higher, -0.134
- ATTGAAAG — higher, 0.231
- CCGAAATA — higher, 0.289
- CCTGTTTC — higher, -0.0625
- ACATCCCT — higher, -0.0504
- ATGTCCTA — higher, -0.145
- TGTAGGAA — higher, -0.072
- AAGAGCTG — lower, -0.215
- AGGTTGAA — higher, 0.167
- CACGTCCC — lower, -0.226
- AAATACCG — higher, 0.184
- ATATTTCA — higher, 0.17
- AACAAGGG — higher, -0.138
- AAACAAAC — higher, 0.165
- CGCATCAA — higher, 0.168
- AAAATGGT — higher, 0.282
- CTCCCAAA — higher, 0.105
- AAGATCTG — higher, 0.0338
- TACGACGA — higher, 0.0388
- CAAATCAG — higher, 0.0435
- GGGGCCCA — lower, -0.158
- CATTCCGA — higher, 0.25
- CTGATAGC — lower, -0.289
- GGCTCATA — higher, -0.0389
- AGCACCTC — higher, -0.0401
- CCTAAATA — higher, 0.0596
- ACCCCAAA — higher, -0.053
- ACTCAACG — higher, -0.0818
- ATAGGTGG — higher, -0.138
- ACTTAAGG — higher, 0.155
- ACGGCGCT — lower, -0.182
- ATTGACCC — higher, 0.0582
- GTACGCCA — lower, -0.381
- ACTAAACG — higher, -0.0129
- CTGACTAC — higher, -0.145
- AACGACGA — higher, 0.141
- GAGAGCTA — higher, -0.0936
- ACCGTACA — higher, 0.0484
- GAAGATGA — higher, 0.0362
- CCCATGAG — lower, -0.273
- GGAAAGCC — higher, 0.0896
- ATGAATGA — higher, 0.197
- TGGTGCAA — higher, -0.105
- ATTGGCCA — higher, -0.0712
- GTCCCTTA — higher, -0.0537
- AACGCGGC — higher, -0.15
- CCGGACAA — higher, 0.283
- GACCTCCA — higher, -0.021
- TCCGGCGA — higher, 0.301
- GGAGTATA — higher, 0.311
- GTGATCGA — higher, 0.105
- CGGTCTTC — higher, 0.136
- GGGAGGAA — higher, -0.0642
- TAGCGGCA — higher, -0.108
- AAACCAGC — higher, 0.0797
- GAAGTGGA — higher, 0.0334
- CGATTCCG — higher, 0.314
- AGCTTACA — higher, 0.0901
- CTCGTAGA — lower, -0.199
- AAACTATC — higher, 0.123
- GGCCAATA — higher, 0.0398
- ACATCATC — higher, 0.0302
- CTGGGTGC — lower, -0.225
- ACCGGCGA — higher, -0.0414
- ACTGTGAT — higher, 0.0339
- CATATAGG — higher, -0.0616
- TACTGACA — higher, 0.176
- ATAAGCAC — higher, 0.0456
- CTCTATAA — higher, 0.186
- GGGGGCGA — lower, -0.187
- AGTCTCAC — higher, -0.0455
- CATGAACG — lower, -0.213
- CTGGCACC — lower, -0.227
- AATCGATT — higher, 0.114
- CAGCCACA — higher, -0.146
- CCCAAGCC — lower, -0.219
- CTGCGTAC — lower, -0.161
- TAGGTCCA — higher, 0.00796
- CCAGATGA — lower, -0.216
- AATACGTA — higher, 0.148
- TATCTTAA — higher, 0.119
- ATTATCAC — higher, 0.201
- ACACGTGC — lower, -0.205
- CAACGGTA — higher, -0.145
- ATAAGGAC — higher, -0.0865
- ACGGGAGC — lower, -0.21
- CACAGCAG — lower, -0.16
- TATCGTAA — higher, 0.171
- ACCGCGTC — higher, -0.14
- GGTGATAC — lower, -0.161
- AAAAGCAG — higher, -0.0522
- ATTAGCAA — higher, 0.138
- ACCGCCGC — higher, -0.0257
- AAAGGTTA — higher, 0.00288
- GCGCCCAA — higher, -0.147
- TCTATAGA — higher, 0.0647
- AAAGGAAC — higher, 0.0768
- GAGGCCCC — lower, -0.337
- AGGCCCAT — lower, -0.271
- CTAACCTC — higher, 0.039
- CCGAGAGC — higher, -0.0413
- CACCGCAC — lower, -0.252
- GCATGGCA — higher, -0.148
- ACGGGTAA — higher, -0.106
- CAGCTTGG — higher, 0.0282
- GCGAAACC — higher, -0.0165
- GAAACGGC — higher, -0.00384
- CAACTTTA — higher, 0.16
- GCCCGAGA — higher, 0.0215
- CCAAGCAC — higher, -0.11
- TATCAAAA — higher, 0.197
- ATATACAA — higher, 0.256
- GATCACAA — higher, 0.101
- CTCGTCAC — higher, -0.0641
- ACTACATC — higher, 0.0926
- GCTAAGCA — higher, -0.106
- CACATTGA — higher, 0.0527
- ATATGGTA — higher, 0.116
- CGTTGTAA — higher, -0.0499
- ACCCTGGC — lower, -0.194
- GTAAGATA — higher, 0.264
- AAATAATG — higher, 0.297
- CCGAATAC — higher, 0.189
- GGACGAAC — higher, 0.00805
- AGAGGTTC — higher, -0.0571
- CTCACGAG — higher, -0.0283
- CTCAATTC — higher, 0.106
- ATCATGCA — higher, -0.0516
- GCCGGTCA — higher, -0.112
- GGTGTTAA — higher, -0.0501
- CGAGTTAC — higher, 0.0146
- ACCATTGC — higher, -0.0529
- GCGAAACA — higher, 0.0351
- GTGGGGAA — higher, 0.0142
- GGCCTGTA — lower, -0.21
- CCTCTTGA — higher, -0.0682
- CTGCGCAC — higher, -0.0515
- AAGGCCAT — higher, 0.00678
- GTGTGTAA — higher, 0.0906
- AGAACCAC — higher, 0.0611
- ACGATCGT — lower, -0.165
- GACAACCC — higher, -0.051
- GACTTTCA — higher, 0.174
- ATACACGG — higher, 0.115
- AGCGGATG — higher, -0.0827
- CTGTCCGC — higher, -0.0203
- TGATAGCA — higher, 0.102
- AAATGATA — higher, 0.337
- ATGTAAAT — higher, 0.217
- GCACAAGC — higher, -0.083
- AGGGGCCC — lower, -0.217
- CTAATTAG — higher, 0.096
- CCGAAGGA — higher, -0.0752
- AGAGCTAC — lower, -0.188
